# Assay results: PubChem BioAssay AID652104 (National Center for Advancing Translational Sciences (NCATS), 2013)
# The whole screen tested about 410,000 compounds, of which about 7,200 (1.8%) were called active. Inconclusive means that the source gave no clear call. Such entries were picked first, then a sample of the others. Calls come from the whole dose curve; as a rule, active = well fitted activation curve with a large enough effect; inconclusive = small, poorly fitted or top-dose-only effect, or another doubt; inactive = no such curve, though single readings can be large or run the other way. Potencies of inconclusive entries are left out as doubtful fits.
# Assay: qHTS of TDP-43 Inhibitors; note: nearly all actives have a fitted effect of over 50% in size
# Settings: TDP-43 expressing yeast growth rescue, BacTiter-Glo, 24 h; series mostly up to 46.1 µM
# Summary of the method: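 Yeast cells expressing TDP-43 under galactose induction are exposed to compounds for 24 hr at 30 deg C. BacTiter-Glo luminescence measures growth, so protective compounds score as activators.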
# Potency is the fitted concentration of half-maximal effect; tags give direction and shape of the fitted curve.
row,Structure (SMILES),Potency
1,Cc1ccc(NC(=O)COc2ccccc2C#N)cc1S(=O)(=O)N1CCCCCC1,active: 28.2 µM
2,O=C(c1c(Cl)cccc1Cl)N1CCN(c2ncccn2)CC1,"inconclusive [activator, partial curve]"
3,O=[N+]([O-])c1ccc(C=NNc2ccccc2)cc1,"inconclusive [activator, partial curve]"
4,COc1ccc(-c2nc(CN3CCC(C(=O)NCc4ccc(C)cc4)CC3)c(C)o2)cc1OC,"inconclusive [activator, partial curve]"
5,O=C(CO/N=C/c1ccccc1O)NNC(=O)c1ccccc1Cl,active: 3.16 µM
6,CC(C)(C)c1ccc(S(=O)(=O)NC(=O)C2(C)CCN2C(=O)CC2CCCCC2)cc1 (configuration not stated),"inconclusive [activator, single point]"
7,N/C(=N\OC(=O)c1ccccc1Cl)c1ccc(Cl)cc1,"inconclusive [activator, single point]"
8,CC(=O)c1ccc(OCc2cc(C(=O)N(C)CC3COc4ccccc4O3)no2)cc1 (configuration not stated),"inconclusive [activator, partial curve, poor fit]"
9,O=C(NCCc1ccccc1)c1ccc(-c2ccccc2C(F)(F)F)o1,inactive
10,CCCN(CC1CC1)C(=S)NC(=O)c1cc(Br)ccc1Cl,"inconclusive [activator, single point]"
11,O=C(Cn1cc(SCc2ccc(F)cc2)c2ccccc21)N1CCCCC1,inactive
12,Cc1ccc(C)c(S(=O)(=O)N2CCN(C(=O)/C=C/c3ccco3)CC2)c1,"inconclusive [activator, partial curve, poor fit]"
13,O=C1c2ccsc2SCCN1Cc1cccc(F)c1,"inconclusive [activator, single point]"
14,Cc1cc(-c2ccncc2)n2ncc(-c3ccccc3)c2n1,"inconclusive [activator, single point]"
15,CNC(=O)c1c(NC(=O)c2ccc3ncsc3c2)sc(C)c1C,"inconclusive [activator, partial curve]"
16,CCC(=O)Nc1c(C(=O)Nc2ccc3c(c2)OCCO3)oc2ccccc12,active: 11.2 µM
17,Cc1cc(C)c(NC(=O)CSc2nc3nccnc3c(=O)n2CCc2c[nH]c3ccccc23)c(C)c1,"inconclusive [activator, partial curve]"
18,CCOc1cccc(C(=O)Nc2ccc3oc(-c4ccncc4)nc3c2)c1,"inconclusive [activator, full curve, poor fit]"
19,Cc1onc(-c2c(Cl)cccc2Cl)c1C(=O)Nc1ccc(N2CCOCC2)cc1,"inconclusive [activator, partial curve]"
20,Cc1cccc(C)c1N1C(=O)c2cccc([N+](=O)[O-])c2C1=O,"inconclusive [activator, single point]"
21,COc1ccccc1NC(=O)c1sc(-c2ccc(Cl)cc2)cc1N,"inconclusive [activator, partial curve]"
22,Cc1ccn2c(C=O)c(-c3ccc(F)cc3)c(C=O)c2c1,active: 20 µM
23,Cc1ccnc(NS(=O)(=O)c2ccc(NC(=O)Cc3cccs3)cc2)n1,inactive

row,Structure (SMILES),Potency
1,COC(=O)c1ccc(NC(=S)NCCc2ccccc2)cc1,"inconclusive [activator, partial curve]"
2,CCc1ccc(S(=O)(=O)NCc2cccs2)cc1,"inconclusive [activator, single point]"
3,Cc1ccnc(NC(=O)Nc2cccc(F)c2)c1,"inconclusive [activator, full curve]"
4,Cc1onc(-c2ccccc2)c1C(=O)Nc1ccc2c(c1)OCO2,"inconclusive [activator, single point]"
5,Cc1ccc(C)c(OCc2cc(C(=O)N3CCN(C(=O)c4ccco4)CC3)no2)c1,"inconclusive [activator, partial curve]"
6,c1ccc(-c2nc(NCc3cccnc3)c3oc4ccccc4c3n2)cc1,"inconclusive [activator, full curve, poor fit]"
7,Cc1cccc(N2C(=O)C(O)=C(C(=O)c3cccs3)C2c2ccc(F)cc2)n1 (configuration not stated),inactive
8,C/C(=N\Nc1nc(C)c(C)s1)c1ccc([N+](=O)[O-])cc1,active: 12.6 µM
9,CCN(Cc1ccccc1)C(=O)COC(=O)c1c(C)nsc1NC,"inconclusive [activator, partial curve]"
10,CCCOc1ccccc1/C=C(\C#N)C(=O)Nc1cccnc1,"inconclusive [activator, single point]"
11,Cc1cccc(-n2ncc3c(N4CCC5(CC4)OCCO5)ncnc32)c1,"inconclusive [activator, partial curve]"
12,Cc1cc(C)cc(NS(=O)(=O)c2c(C)nc3scc(C)n3c2=O)c1,"inconclusive [activator, partial curve]"
13,COc1ccc(OC)c(C(=O)c2coc3ccc(OC)cc23)c1,"inconclusive [activator, single point]"
14,COc1cc(C(=O)N2CCN(S(=O)(=O)c3cccc(F)c3)CC2)ccc1OCC(=O)N1CCOCC1,inactive
15,COc1ccc(C(C[N+](=O)[O-])c2c(-c3ccccc3)cc3ccccn23)c(OC)c1 (configuration not stated),"inconclusive [activator, single point]"
16,Cc1ccc(NC(=O)Cn2c(=O)n(-c3ccccc3)c(=O)c3ccc(C(=O)NCc4ccc5c(c4)OCO5)cc32)cc1,inactive
17,Cc1c(C(=O)N2CCc3ccccc3C2)sc2nc(-c3ccccc3)cn12,"inconclusive [activator, single point]"
18,CCOc1ccc(C(=O)NCC(=O)OCC(=O)Nc2ccccc2OCC)cc1,"inconclusive [activator, single point]"
19,O=S(=O)(NNc1ccc(F)cc1F)c1cccc(Cl)c1,"inconclusive [activator, partial curve]"
20,Cc1ccc(-n2c(=O)c3c(C)c(C)sc3n(Cc3cc(=O)n4ccccc4n3)c2=O)cc1C,"inconclusive [activator, partial curve]"
21,Clc1ccccc1/C=C/c1nc(-c2cccnc2)no1,active: 10 µM
22,CC1CCN(S(=O)(=O)c2cccc3cccnc23)CC1,"inconclusive [activator, partial curve]"
23,O=C(c1cccc(F)c1)N1CCN(c2cccc(Cl)c2)CC1,"inconclusive [activator, partial curve, poor fit]"

row,Structure (SMILES),Potency
1,COc1ccc(Br)cc1/C=C/C(=O)Nc1ccc2ccccc2c1,inactive
2,Cn1nccc1C(=O)N1CCc2ccccc21,"inconclusive [activator, single point]"
3,Cc1nn(-c2ccc3ccccc3c2)c(=O)c2ccccc12,"inconclusive [activator, partial curve]"
4,COc1ccc(CCNC(=O)COC(=O)c2cc(Cl)nc(Cl)c2)cc1,"inconclusive [activator, partial curve, poor fit]"
5,COc1cccc(C(=O)O/N=C(\N)Cc2ccc(Cl)cc2)c1,"inconclusive [activator, single point]"
6,CC1=CCC2C(=O)N(CCc3c[nH]c4ccccc34)C(=O)C2C1 (configuration not stated),"inconclusive [activator, single point]"
7,Cc1ccc(/C(N)=N/OC(=O)CN(C)S(=O)(=O)c2ccc(C)cc2)cc1,"inconclusive [activator, single point]"
8,CCOc1ccc(S(=O)(=O)NCc2ccc3c(c2)CCN3C(=O)c2ccc(C)cc2)cc1,inactive
9,COc1ccc(C(=O)Nc2ccc(S(=O)(=O)Nc3onc(C)c3C)cc2)c(OC)c1,inactive
10,O=C(COC(=O)Cc1c(Cl)cccc1Cl)NCc1ccccc1,"inconclusive [activator, partial curve]"
11,COc1ccccc1-c1noc2ncnc(Nc3ccccc3C)c12,"inconclusive [activator, single point]"
12,Cc1cc(C)cc(NS(=O)(=O)c2cnc(Cl)c(Cl)c2)c1,active: 35.5 µM
13,CC(C)CC(=O)NCC(c1ccc2c(c1)OCO2)N1CCN(c2ccc(F)cc2)CC1 (configuration not stated),inactive
14,COc1ccc(-c2noc(C3CCCN(C(=O)c4c(F)cccc4F)C3)n2)cc1OC (configuration not stated),"inconclusive [activator, single point]"
15,CCCC(=O)N1CCC1(C)C(=O)NS(=O)(=O)c1ccc(C#N)cc1 (configuration not stated),"inconclusive [activator, partial curve]"
16,Cc1ccc(C)c(S(=O)(=O)N2CCN(C(=O)C(C)Sc3ccccc3)CC2)c1 (configuration not stated),"inconclusive [activator, partial curve]"
17,CCCOc1ccc(NC(=O)CC2C(=O)N(c3ccc(OC)cc3)C(=O)N2CCc2ccncc2)cc1 (configuration not stated),inactive
18,COc1ccc(-c2nc(CSCC(=O)NC3CCCc4ccccc43)c(C)o2)cc1OC (configuration not stated),"inconclusive [activator, single point]"
19,O=C(CNC(=O)c1ccccc1C(F)(F)F)N/N=C/c1cccs1,inactive
20,CCOc1ccc(CC(=O)OCN2C(=O)c3ccccc3C2=O)cc1,"inconclusive [activator, partial curve]"
21,COc1cc(OC)cc(C(=O)NC(C)CNc2ccc(Cl)cc2[N+](=O)[O-])c1 (configuration not stated),"inconclusive [activator, partial curve]"
